Assay results reported in PubChem BioAssay AID588591 (National Center for Advancing Translational Sciences (NCATS), 2011).
The campaign covered roughly 390,000 compounds. About 4,700 (1.2%) were called active. This list was built around the results that the source calls inconclusive (neither active nor inactive); the mix of calls is not that of the screen. Calls come from the whole dose curve; as a rule, active = well fitted inhibition curve with a large enough effect; inconclusive = small, poorly fitted or top-dose-only effect, or another doubt; inactive = no such curve, though single readings can be large or run the other way. Potencies of inconclusive entries are doubtful fits and often do not repeat.

biological target: DNA polymerase eta (Homo sapiens) (UniProt Q9Y253); test: qHTS for Inhibitors of Polymerase Eta; settings: recombinant Pol eta, fluorescent DNA replication assay; series mostly up to 114 µM; activity change, negative = inhibition: at the top concentration
UniProt Q9Y253, sequence (Q9Y253 whole entry, looked up): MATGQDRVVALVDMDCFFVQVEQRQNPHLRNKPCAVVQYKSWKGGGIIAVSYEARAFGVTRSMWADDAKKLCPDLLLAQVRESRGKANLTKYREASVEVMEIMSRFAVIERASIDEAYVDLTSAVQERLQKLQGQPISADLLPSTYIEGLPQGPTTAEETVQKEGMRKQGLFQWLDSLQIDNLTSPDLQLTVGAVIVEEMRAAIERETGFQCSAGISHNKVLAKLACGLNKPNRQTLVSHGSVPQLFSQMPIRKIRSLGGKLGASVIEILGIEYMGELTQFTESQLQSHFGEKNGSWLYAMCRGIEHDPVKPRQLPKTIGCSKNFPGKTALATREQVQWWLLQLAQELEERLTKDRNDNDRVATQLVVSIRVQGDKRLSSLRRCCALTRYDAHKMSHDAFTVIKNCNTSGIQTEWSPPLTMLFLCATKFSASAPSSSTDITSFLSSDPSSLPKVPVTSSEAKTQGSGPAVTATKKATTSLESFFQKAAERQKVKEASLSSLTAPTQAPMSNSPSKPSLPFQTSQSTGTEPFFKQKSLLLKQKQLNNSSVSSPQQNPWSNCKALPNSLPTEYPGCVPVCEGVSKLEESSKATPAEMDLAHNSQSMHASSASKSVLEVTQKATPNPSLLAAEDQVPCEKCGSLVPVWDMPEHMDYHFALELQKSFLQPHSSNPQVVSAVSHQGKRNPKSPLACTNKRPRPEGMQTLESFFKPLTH
Outline: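 Pol eta (10 nM) was preincubated with compounds for 15 min at room temperature, after which fluorescent replication substrate (50 nM final) was added to start the reaction. Fluorescence was read kinetically at 0 and 10 min.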
% is set by controls: 0 for no effect and ±100 for the full control effect; potency is the fitted concentration of half-maximal effect; tags give direction and shape of the fitted curve.

| Structure (SMILES) | activity change, negative = inhibition | Potency |
| --- | --- | --- |
| COc1ccc(NC(=O)NNC(=O)c2cc3ccccc3cc2O)cc1 | inactive: -17.4% | – |
| COc1cccc(/C=C/c2[nH]c(=O)[nH]c(=O)c2[N+](=O)[O-])c1O | – | active: 50.1 µM |
| O=[N+]([O-])c1cc(/C=N/n2c(-c3cccnc3)n[nH]c2=S)ccc1Cl | – | active: 20 µM |
| COc1ccc2ccccc2c1/C=N/NC(=O)c1nnn(-c2nonc2N)c1C(C)C | inactive: -19.3% | – |
| CSc1ccc(C(=O)/C=C/c2ccc(N)cc2)cc1 | – | inconclusive: 20 µM [inhibitor, full curve, poor fit] |
| CS(=O)(=O)N1CC(C(=O)O)Oc2ccc(CC(=O)O)cc21 (stereo not drawn) | – | active: 17.8 µM |
| Cc1ccc(-c2cc(-c3ccccc3)c(C#N)c(Br)n2)cc1 | – | inconclusive: 2.82 µM [inhibitor, full curve, poor fit] |
| COc1ccc(NC(=O)CSc2nc(-c3cccs3)cc(C(F)(F)F)n2)cc1OC | inactive: 2.88% | – |
| Cc1cc(C)c(OCC(=O)NCCCn2nc(C)cc2C)c(C)c1 | inactive: 1.09% | – |
| CCOc1ccc(CNCc2c(C(=O)O)n(Cc3ccccc3F)c3cc(OC)ccc23)cc1 | inactive: 3.92% | – |
| COC(=O)C(NC(=O)CC(C)C)(Nc1nc2c(s1)CCCC2)C(F)(F)F (stereo not drawn) | inactive: -10.8% | – |
| COC(=O)c1ccc(NC(=O)CCS(=O)(=O)c2ccc(Br)cc2)cc1 | – | inconclusive: 56.2 µM [inhibitor, partial curve, poor fit] |
| COc1cc(NS(=O)(=O)c2c(C(=O)N3CCOCC3)c(C)n(C)c2C)cc(OC)c1OC | inactive: -18.4% | – |
| Cc1nc2scc(-c3cccs3)c2c(=O)o1 | – | inconclusive: 44.7 µM [inhibitor, partial curve, poor fit] |
| O=[N+]([O-])c1ccc(Cl)c2c1C1C=CCC1C(c1ccccn1)N2 (stereo not drawn) | – | active: 50.1 µM |
| NC(=O)C1(C(N)=O)OC1c1ccc(Cl)cc1Cl (stereo not drawn) | – | inconclusive: 89.1 µM [inhibitor, partial curve, poor fit] |
| CCc1ccc(NC(=O)c2ccc3c(O)c(S(=O)(=O)c4ccc(Cl)cc4)c(=O)[nH]c3c2)cc1 | – | inconclusive: 89.1 µM [inhibitor, single point] |
| Cc1cc(C)cc(NC(=O)Cn2nnc(C(=O)NCc3ccc4c(c3)OCO4)c2N)c1 | – | inconclusive: 89.1 µM [inhibitor, single point] |
| CC(C)(C)C(=O)Nc1cccc2[nH]ncc12 | – | inconclusive: 39.8 µM [inhibitor, single point] |
| CN1c2ccccc2C(C)(C)C12C=Nc1c(ccc3ccccc13)O2 (stereo not drawn) | inactive: -18% | – |
| CCOC(=O)c1[nH]c2ccc(OC)cc2c1NC(C)=O | inactive: -3.53% | – |
| CCOc1ccc(C(=O)NNC(=O)CN2C(=O)NC3(CCCC3)C2=O)cc1 | – | inconclusive: 100 µM [inhibitor, partial curve, poor fit] |
| CCc1ccc2nc3sc(C(=O)Nc4nnc(CC)s4)c(N)c3cc2c1 | – | active: 50.1 µM |

| Structure (SMILES) | activity change, negative = inhibition | Potency |
| --- | --- | --- |
| Cc1cccc2cc(-c3nc4ccc(C(=O)O)cc4[nH]3)c(=O)oc12 | – | active: 22.4 µM |
| CCCc1cc(C(=O)Cc2ccc(F)cc2)c(O)cc1O | – | inconclusive: 56.2 µM [inhibitor, partial curve, poor fit] |
| CCCCOC(=O)c1c(C)oc2ccc(NS(=O)(=O)c3ccc(F)cc3C)cc12 | – | inconclusive: 56.2 µM [inhibitor, partial curve, poor fit] |
| COc1ccc(-c2nc3ccc(Cl)cn3c2NC2CCCCC2)cc1SC1CCCCC1 | – | inconclusive: 89.1 µM [inhibitor, partial curve, poor fit] |
| S=c1[nH]nc(-c2ccc(Cl)cc2)n1/N=C/C=C/c1ccco1 | – | inconclusive: 50.1 µM [inhibitor, partial curve] |
| O=C(c1ccccc1NS(=O)(=O)c1ccc([N+](=O)[O-])cc1[N+](=O)[O-])N1O[C@@H]2C=C[C@H]1C2 | – | inconclusive: 56.2 µM [inhibitor, partial curve, poor fit] |
| COc1cc2nc(Nc3ccc(C)c(C)c3)nc(N)c2cc1OC | – | inconclusive: 89.1 µM [inhibitor, single point] |
| Cc1ccc(NC(=O)COC(=O)C2CCN(c3ccc(C(F)(F)F)cn3)CC2)cc1C | – | inconclusive: 17.8 µM [inhibitor, full curve, poor fit] |
| O=Nc1nc2ncccn2c1-c1ccccc1 | inactive: -4.66% | – |
| CCOc1ccc(S(=O)(=O)N(CC(=O)N/N=C/c2ccc(-c3ccc([N+](=O)[O-])cc3)o2)c2ccccc2)cc1 | – | active: 3.16 µM |
| CCOc1cc(/C=C2\SC(=N)N(c3nonc3N)C2=O)ccc1OCC(N)=O | – | inconclusive: 20 µM [inhibitor, full curve, poor fit] |
| O=c1oc2c(O)c(O)cc3c(=O)oc4c(O)c(O)cc1c4c23 | – | active: 0.794 µM |
| O=C1C=C(c2ccc(C(=O)O)cc2)C[C@@H](c2ccc3c(c2)OCO3)C1 | – | inconclusive: 50.1 µM [inhibitor, partial curve, poor fit] |
| O=C(NCC1CCCO1)c1ccc(NS(=O)(=O)c2cccs2)cc1 (stereo not drawn) | – | inconclusive: 15.8 µM [inhibitor, full curve, poor fit] |
| COCCN1C(=O)/C(=C/c2ccc(OCc3ccc(C(=O)O)cc3)c(OC)c2)SC1=Nc1ccccc1 | – | active: 28.2 µM |
| O=C(COC(=O)c1ccc2c(c1Cl)C(=O)c1ccccc1C2=O)NC1CC1 | – | inconclusive: 31.6 µM [inhibitor, single point] |
| C=CCn1c(SCC(=O)Nc2sccc2C(N)=O)nc2sc(CC)cc2c1=O | – | inconclusive: 28.2 µM [inhibitor, partial curve, poor fit] |
| NNC(=O)CNC(c1ccccc1)c1cc(Br)ccc1NC(=O)CCN1CCOCC1 (stereo not drawn) | – | inconclusive: 89.1 µM [inhibitor, partial curve, poor fit] |
| COC(=O)c1ccc(CN=C(NS(=O)(=O)c2ccccc2)c2ccccc2)cc1 | – | inconclusive: 100 µM [inhibitor, partial curve, poor fit] |
| COc1ccc(NC(=O)/C(C#N)=C/c2ccc(Br)o2)cc1 | – | inconclusive: 89.1 µM [inhibitor, single point] |
| CCCCc1nnc(NC(=O)C2CC(=O)N(c3ccc4c(c3)OCCO4)C2)s1 (stereo not drawn) | inactive: -21.2% | – |
| CC1=C/C(=C(/c2cc(C)c(O)c(Br)c2)c2ccccc2S(=O)(=O)O)C=C(Br)C1=O | – | active: 35.5 µM |
| O=C(Nc1ccc(Cl)cc1Cl)c1ccc2c(c1)OCCO2 | inactive: -6.67% | – |

| Structure (SMILES) | activity change, negative = inhibition | Potency |
| --- | --- | --- |
| COC(=O)/C=C1/SC(=Nc2ccc(Cl)c(Cl)c2)NC1=O | – | active: 79.4 µM |
| O=C(NCCc1ccco1)C(=O)NCC1OCCCN1S(=O)(=O)c1ccccc1 (stereo not drawn) | – | inconclusive: 25.1 µM [inhibitor, partial curve, poor fit] |
| Cc1cc(C(=O)NCc2ccc(C(=O)O)o2)c(C)o1 | – | active: 3.98 µM |
| COc1cccc(/C=N/Nc2ncnc(Cl)c2N)c1O | – | inconclusive: 56.2 µM [inhibitor, partial curve, poor fit] |
| C[N+]1=C2CCCCCN2C(O)(c2ccccc2)C1 (stereo not drawn) | inactive: -7.25% | – |
| O=C(Oc1cccc(-c2cnc3ccccc3n2)c1)c1ccco1 | – | inconclusive: 39.8 µM [inhibitor, single point] |
| Cc1nc(C)c(C(=O)Nc2ncc([N+](=O)[O-])s2)o1 | – | active: 8.91 µM |
| C#CCOCCOCCOCCNc1nc(N2CCN(C(=O)Cn3cc(CCCCN)nn3)CC2)nc(N2CCN(C(=O)[C@H](C)n3cc(CCC(=O)O)nn3)CC2)n1 | inactive: -10.2% | – |
| O=C(Cn1ncc2c3ccccc3n(Cc3cccc(Cl)c3)c2c1=O)NCc1ccccn1 | – | inconclusive: 15.8 µM [inhibitor, full curve, poor fit] |
| CC(=O)C1=C(C)N=c2s/c(=C/c3ccc4c(c3)OCO4)c(=O)n2C1c1ccc(N(C)C)cc1 (stereo not drawn) | – | inconclusive: 50.1 µM [inhibitor, partial curve, poor fit] |
| CCCc1ncc(CN2CCCCC2C(=O)Nc2ccc(Oc3ccccc3)nc2)cn1 (stereo not drawn) | – | inconclusive: 79.4 µM [inhibitor, partial curve, poor fit] |
| Cc1ccc(SCC(=O)NC(=O)NCc2ccco2)c(C)c1 | – | active: 14.1 µM |
| CC(=O)NC1=NC(=O)/C(=C/c2cc(C)n(-c3ccc(NC(C)=O)cc3)c2C)S1 | inactive: -2.65% | – |
| Cc1ccc(S(=O)(=O)Nc2ccc3c(c2)CCCN3C(=O)c2cccs2)cc1C | inactive: -15.4% | – |
| O=C(NC(NC(=O)c1ccccc1)C(=O)c1ccccc1)c1ccccc1 | – | inconclusive: 25.1 µM [inhibitor, partial curve, poor fit] |
| CN(C)S(=O)(=O)Oc1ccsc1C(=O)Nc1ccc(Cl)c(Cl)c1 | – | inconclusive: 50.1 µM [inhibitor, partial curve, poor fit] |
| O=C(CNS(=O)(=O)c1ccc2ccccc2c1)OCC(=O)c1ccc(Br)s1 | – | inconclusive: 25.1 µM [inhibitor, single point] |
| CCC(=O)Nc1nnc(S(=O)(=O)N2CCCc3ccccc32)s1 | – | inconclusive: 100 µM [inhibitor, single point] |
| COc1ccc(CCNC(=O)CCc2c(C)nc3c(c(C)nn3-c3ccc(C)cc3)c2C)c(OC)c1 | inactive: -13.7% | – |
| Cc1sc2nc(CSCC(=O)Nc3ccc(C(=O)N(C)C)cc3)[nH]c(=O)c2c1C | – | inconclusive: 89.1 µM [inhibitor, partial curve, poor fit] |
| COc1ccc(Cl)cc1NC(=O)CN(c1cc(C)cc(C)c1)S(=O)(=O)c1c(C)n[nH]c1C | – | inconclusive: 50.1 µM [inhibitor, partial curve, poor fit] |
| O=C(NN=Cc1ccc(O)cc1)C(=O)NN=Cc1ccc(O)cc1 | inactive: -26.9% | – |
